# Data reported in the supplement of paper PMC10369915.
# The other results are listed elsewhere or left out. Rule as the data show it: active = 3.2 or more and inactive = the rest. Most of these values are background signal.
# B1: UGT3A1_Y123_C121G (peptide)
# chain: GTQGSYLLSRK
# B2: UFSP2_Y287_YF (peptide)
# chain: QGIFGYHHFMQ
# B3: TUBB3_Y208_R213C (peptide)
# chain: DNEALYDICFC
# B4: TUBB8_Y340_L345F (peptide)
# chain: DKNSSYFADWF
# B5: TWNK_Y508_V507I_YF (peptide)
# chain: HAVFIYDICHV
# B6: TYROBP_Y112 (peptide)
# chain: TQRPYYKGGGG
# B7: TYROBP_Y91 (peptide)
# chain: ETESPYQELQG
# B8: UNC13B_Y243 (peptide)
# chain: DSMQSYDLDYP
# B9: UNC13B_Y243_D238E (peptide)
# chain: ESMQSYDLDYP
# B10: UGT1A1_Y337_R336L (peptide)
# chain: TVLWLYTGTRP
# B11: TWNK_Y508_YF (peptide)
# chain: HAVFVYDICHV
# B12: UGT1A1_Y337_R336Q (peptide)
# chain: TVLWQYTGTRP
# B13: UBD_Y161_C160S (peptide)
# chain: LFLASYCIGGG
# B14: TYRO3_Y828_A831T (peptide)
# chain: GRDQPYSGTGD
# B15: UFSP2_Y285 (peptide)
# chain: VVQGIYGYHHY
# B16: TYROBP_Y111_YF (peptide)
# chain: NTQRPYFKGGG
# B17: UGGT2_Y823 (peptide)
# chain: IATAIYSGDKI
# B18: UFSP2_Y287 (peptide)
# chain: QGIYGYHHYMQ
# B19: TUBB3_Y200_E205K (peptide)
# chain: NTDETYCIDNK
# B20: UBA1_Y560_E557V (peptide)
# chain: DTVRIYDDDFF
# B21: UBTF_Y207 (peptide)
# chain: PQQLWYTHEKK
# B22: TYROBP_Y112_YF (peptide)
# chain: TQRPFYKGGGG
# B23: TUBB_Y222_Y222F (peptide)
# chain: LTTPTFGDLNH
# B24: UBD_Y161 (peptide)
# chain: LFLACYCIGGG
# B25: UCP2_Y79 (peptide)
# chain: GPRSLYNGLVA
# B26: UFSP2_Y285_Y290H (peptide)
# chain: VVQGIYGYHHH
# B27: TWNK_Y508 (peptide)
# chain: HAVYVYDICHV
# B28: TUBA4A_Y319 (peptide)
# chain: ACCLLYRGDVV
# B29: UMPS_Y432_G429R (peptide)
# chain: NLRQQYNSPQE
# B30: TUBB8_Y281 (peptide)
# chain: RGSQQYRALTV
# B31: UGT3A1_Y123 (peptide)
# chain: GTQCSYLLSRK
# B32: TYRO3_Y828_R824G (peptide)
# chain: GGDQPYSGAGD
# B33: UFSP2_Y287_Y290H_YF (peptide)
# chain: QGIFGYHHHMQ
# B34: TUBA4A_Y319_R320C (peptide)
# chain: ACCLLYCGDVV
# B35: TUBB3_Y422_YF (peptide)
# chain: DLVSEYQQFQD
# B36: UMPS_Y432 (peptide)
# chain: NLGQQYNSPQE
# B37: TUBB8_Y281_T285P (peptide)
# chain: RGSQQYRALPV
# Biological target: SHP2 C-SH2 domain E139D
# Assay: enrichment score (SH2-bound / input frequency) (ratio); bacterial display of known human phosphotyrosine sites (pTyr-Var adds point mutants) read by sequencing; higher = stronger binding; tyrosines were phosphorylated by kinases first
# Conditions: peptide library: pTyr-Var
# 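Also: displayed peptides selected on beads carrying the immobilized SH2 domain, with library peptides lacking any tyrosine serving as negative controls.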
row,Binder,enrichment score
1,B1,inactive: 0.49
2,B2,inactive: 2.11
3,B3,inactive: 1.05
4,B4,inactive: 0.747
5,B5,inactive: 1.64
6,B6,inactive: 0.771
7,B7,inactive: 0.52
8,B8,inactive: 0.339
9,B9,inactive: 0.61
10,B10,inactive: 1.96
11,B11,inactive: 1.22
12,B12,inactive: 0.846
13,B13,inactive: 1.42
14,B14,inactive: 0.662
15,B15,inactive: 1.46
16,B16,inactive: 0.868
17,B17,inactive: 0.95
18,B18,inactive: 2.23
19,B19,inactive: 0.753

row,Binder,enrichment score
1,B20,inactive: 0.718
2,B21,inactive: 1.51
3,B22,inactive: 0.806
4,B23,inactive: 1.13
5,B24,active: 3.9
6,B25,inactive: 0.953
7,B26,inactive: 2.3
8,B27,inactive: 1.55
9,B28,inactive: 1.51
10,B29,inactive: 0.711
11,B30,inactive: 0.493
12,B31,inactive: 0.546
13,B32,inactive: 0.525
14,B33,inactive: 2.93
15,B34,inactive: 1.11
16,B35,inactive: 0.623
17,B36,inactive: 0.547
18,B37,inactive: 0.973

# Biological target: SHP2 C-SH2 domain wild-type
# Assay: as above
# Conditions: peptide library: pTyr-Var
row,Binder,enrichment score
1,B1,inactive: 0.487
2,B2,inactive: 1.63
3,B3,inactive: 1.24
4,B4,inactive: 0.687
5,B5,inactive: 1.65
6,B6,inactive: 0.615
7,B7,inactive: 0.685
8,B8,inactive: 0.4
9,B9,inactive: 0.753
10,B10,inactive: 1.45
11,B11,inactive: 1.41
12,B12,inactive: 0.882
13,B13,inactive: 1.32
14,B14,inactive: 0.638
15,B15,inactive: 1.4
16,B16,inactive: 0.812
17,B17,inactive: 0.736
18,B18,inactive: 2.85
19,B19,inactive: 0.966

row,Binder,enrichment score
1,B20,inactive: 0.744
2,B21,inactive: 1.27
3,B22,inactive: 0.757
4,B23,inactive: 0.969
5,B24,active: 3.46
6,B25,inactive: 0.883
7,B26,inactive: 2.3
8,B27,inactive: 1.76
9,B28,inactive: 1.18
10,B29,inactive: 0.558
11,B30,inactive: 0.457
12,B31,inactive: 0.53
13,B32,inactive: 0.371
14,B33,inactive: 2.36
15,B34,inactive: 1.21
16,B35,inactive: 0.655
17,B36,inactive: 0.741
18,B37,inactive: 0.864

# Biological target: SHP2 N-SH2 domain L43F
# Assay: as above
# Conditions: peptide library: pTyr-Var
row,Binder,enrichment score
1,B1,inactive: 0.501
2,B2,inactive: 1.56
3,B3,inactive: 1.15
4,B4,inactive: 1.03
5,B5,inactive: 1.37
6,B6,inactive: 0.599
7,B7,inactive: 0.452
8,B8,inactive: 0.487
9,B9,inactive: 0.818
10,B10,inactive: 1.47
11,B11,inactive: 1.64
12,B12,inactive: 0.805
13,B13,inactive: 0.986
14,B14,inactive: 0.582
15,B15,inactive: 1.14
16,B16,inactive: 0.769
17,B17,inactive: 0.88
18,B18,inactive: 2
19,B19,inactive: 1.02

row,Binder,enrichment score
1,B20,inactive: 0.577
2,B21,inactive: 1.59
3,B22,inactive: 0.81
4,B23,inactive: 1.22
5,B24,active: 4.29
6,B25,inactive: 0.809
7,B26,inactive: 1.93
8,B27,inactive: 1.08
9,B28,inactive: 1.26
10,B29,inactive: 0.696
11,B30,inactive: 0.389
12,B31,inactive: 0.432
13,B32,inactive: 0.43
14,B33,inactive: 2.92
15,B34,inactive: 1.03
16,B35,inactive: 0.784
17,B36,inactive: 0.621
18,B37,inactive: 0.817

# Biological target: SHP2 N-SH2 domain T42A
# Assay: as above
# Conditions: peptide library: pTyr-Var
row,Binder,enrichment score
1,B1,inactive: 0.538
2,B2,inactive: 1.67
3,B3,inactive: 1.03
4,B4,inactive: 0.756
5,B5,inactive: 1.61
6,B6,inactive: 0.74
7,B7,inactive: 0.427
8,B8,inactive: 0.356
9,B9,inactive: 0.557
10,B10,inactive: 1.4
11,B11,inactive: 0.873
12,B12,inactive: 0.722
13,B13,inactive: 1.06
14,B14,inactive: 0.383
15,B15,inactive: 1.03
16,B16,inactive: 0.65
17,B17,inactive: 0.76
18,B18,inactive: 1.97
19,B19,inactive: 0.57

row,Binder,enrichment score
1,B20,inactive: 0.588
2,B21,inactive: 1.27
3,B22,inactive: 0.676
4,B23,inactive: 0.95
5,B24,inactive: 3.17
6,B25,inactive: 0.768
7,B26,inactive: 1.77
8,B27,inactive: 1.48
9,B28,inactive: 1.17
10,B29,inactive: 0.68
11,B30,inactive: 0.35
12,B31,inactive: 0.595
13,B32,inactive: 0.452
14,B33,inactive: 2.4
15,B34,inactive: 0.76
16,B35,inactive: 0.651
17,B36,inactive: 0.633
18,B37,inactive: 0.761

# Biological target: SHP2 N-SH2 domain T52S
# Assay: as above
# Conditions: peptide library: pTyr-Var
row,Binder,enrichment score
1,B1,inactive: 0.345
2,B2,inactive: 1.68
3,B3,inactive: 1.13
4,B4,inactive: 0.739
5,B5,inactive: 1.47
6,B6,inactive: 1.56
7,B7,inactive: 0.509
8,B8,inactive: 0.497
9,B9,inactive: 0.685
10,B10,inactive: 1.74
11,B11,inactive: 1.55
12,B12,inactive: 0.831
13,B13,inactive: 0.977
14,B14,inactive: 0.499
15,B15,inactive: 1.33
16,B16,inactive: 0.729
17,B17,inactive: 0.914
18,B18,inactive: 1.87
19,B19,inactive: 0.705

row,Binder,enrichment score
1,B20,inactive: 0.766
2,B21,inactive: 1.37
3,B22,inactive: 0.758
4,B23,inactive: 1.37
5,B24,active: 3.64
6,B25,inactive: 0.735
7,B26,inactive: 2.46
8,B27,inactive: 1.69
9,B28,inactive: 1.64
10,B29,inactive: 0.614
11,B30,inactive: 0.456
12,B31,inactive: 0.54
13,B32,inactive: 0.389
14,B33,inactive: 2.83
15,B34,inactive: 1.03
16,B35,inactive: 0.665
17,B36,inactive: 0.611
18,B37,inactive: 1.12

# Biological target: SHP2 N-SH2 domain wild-type
# Assay: as above
# Conditions: peptide library: pTyr-Var
row,Binder,enrichment score
1,B1,inactive: 0.527
2,B2,inactive: 1.42
3,B3,inactive: 1.28
4,B4,inactive: 0.701
5,B5,inactive: 1.81
6,B6,inactive: 0.753
7,B7,inactive: 0.692
8,B8,inactive: 0.41
9,B9,inactive: 0.941
10,B10,inactive: 1.73
11,B11,inactive: 2
12,B12,inactive: 0.742
13,B13,inactive: 1.29
14,B14,inactive: 0.569
15,B15,inactive: 1.42
16,B16,inactive: 0.696
17,B17,inactive: 1.18
18,B18,inactive: 2.11
19,B19,inactive: 0.908

row,Binder,enrichment score
1,B20,inactive: 0.721
2,B21,inactive: 1.19
3,B22,inactive: 0.746
4,B23,inactive: 0.913
5,B24,active: 3.48
6,B25,inactive: 0.877
7,B26,inactive: 2.08
8,B27,inactive: 2.39
9,B28,inactive: 1.16
10,B29,inactive: 0.849
11,B30,inactive: 0.487
12,B31,inactive: 0.521
13,B32,inactive: 0.43
14,B33,inactive: 2.3
15,B34,inactive: 0.941
16,B35,inactive: 0.642
17,B36,inactive: 0.611
18,B37,inactive: 1.02
